TGI and GI50 data for 65 molecules are collected here from PubChem BioAssay (NCI).

SMILES strings stand for the structures. “And” between values parts separate entries of the source, which are not always exact repeats. Equal values may be shown once.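 Assay format: 96-well plates, 48-hour exposure. GI50: concentration for 50% inhibition of growth. The concentration for full growth arrest is given as TGI.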

The subject of this assay is NCI-H322M lung. The experiment in a line: growth of human tumour cells (NCI), 48 h.
With `O=C(c1cc2ccccc2[nH]1)C(O)(c1cc2ccccc2[nH]1)c1cc2ccccc2[nH]1`, the TGI was > 246 µM. With `Oc1c(C(O)(c2ccccc2)c2ccc3ccccc3c2O)ccc2ccccc12`, the TGI was 31 µM. In turn, `COC1/C=C\C=C(/C)C(=O)NC2=CC(=O)C=C(C2=O)C(OC)C(C)CC(OC)C(OC)C(C)/C=C(/C)C1OC(N)=O` (stereo unspecified) showed a TGI of 29.8 µM.

With `O=C1NC(=NCc2cccs2)SC1Cc1ccc2ncccc2c1` (stereo unspecified), the GI50 was > 25 µM and the TGI is > 25 µM.

As for `O=C(CSc1nc2ccc(I)cc2c(=O)n1Cc1ccccc1)N/N=C/c1ccccc1`, the TGI is > 100 µM. With `CCOC(=O)CC(=O)ON(C)C(=O)Cc1ccccc1`, the TGI was > 100 µM. The molecule `CCN(CC)CCn1ncc2ccc3c(c(=O)c4cccnc4n3CCN(CC)CC)c21` showed a TGI of 4.34 µM. For the molecule `CN(c1c(Cl)cccc1Cl)S(=O)(=O)c1ccccc1[N+](=O)[O-]`, the TGI is > 100 µM. Turning to `CCC(=O)C1=C(OC(C)=O)C2Cc3c(n(C)c4ccccc34)C(C1)N2C` (stereo unspecified), the TGI is > 100 µM.

Take `CC/C(=N\Nc1nc2ccccc2n1C)c1ccccn1`: the GI50 was 0.0467 µM and the TGI turned out to be 11.2 µM. As for `C/C(CC(O)(C(F)(F)F)C(F)(F)F)=N\N`, the TGI is > 10 µM. With `O=C(CCc1nnc2s/c(=C\c3ccccc3)c(=O)n12)Nc1cc(Cl)ccc1Cl`, the TGI is > 100 µM. As for `COc1cc(/C=C2\C(=O)N(c3cccc(Cl)c3)C(c3ccccc3)S2(=O)=O)cc(OC)c1OC` (stereo unspecified), the TGI was > 100 µM. Turning to `NCCCNCCSSCc1ccccc1CSSCCNCCCN`, the TGI was > 100 µM. As for `C/C(Cl)=N\OC(=O)Nc1ccc([N+](=O)[O-])cc1`, the TGI is > 100 µM.

`CN(Cc1cnc2nc(N)nc(N)c2n1)c1ccc(C(=O)NC(CCS(=O)(=O)O)C(=O)O)cc1` (stereo unspecified): the TGI is > 100 µM. For `CC1=CC(c2ccccc2)OP1(=O)c1ccccc1` (stereo unspecified), the TGI is > 100 µM.

For the molecule `CC(=O)Nc1ccc2nncnc2c1`, the TGI was > 100 µM. Still for that read-out and setting: the figure for `CC(=O)OC1C=CC2CCN3C(=O)c4cc5c(cc4[C@H]1C23)OCO5` (stereo partly specified) is > 100 µM; for `Cc1cccc2c1Oc1cc(Cl)ccc1C2NC(=O)CCN1CCCCC1` (stereo unspecified) it is 26.7 µM; for `ON=C1CCCCC(=NO)CCCC1` it is > 100 µM. The same measure, in the same setting: the figure for `Cc1csc2c(P(=O)(OC(C)C)OC(C)C)c(-c3ccccc3)cn12` is 24.8 µM.

For the molecule `COC1=C(OC)C(=O)C(/C=C(\C)C(=O)O)=C(C)C1=O`, the GI50 was > 100 µM and the TGI is > 100 µM. Take `O=C1C(NS(=O)(=O)c2ccccc2)=C(n2cnc3ccccc32)C(=O)c2ccccc21`: the TGI was > 100 µM. `N=C(N)n1ncc(Cl)c(Cl)c1=O` displayed a TGI of 25 µM.

For the molecule `C=CCN1CCC(OC(=O)C(O)(/C=C\CC)C2CCCC2)CC1` (stereo unspecified), the TGI was > 100 µM. Turning to `C=C1c2nc3ccccc3n2C=C(c2ccc(Cl)cc2)N1c1ccc(OCCN2CCOCC2)cc1`, the TGI is > 100 µM.

On to `N/C(=N\O)c1ncc(-c2ccc(C(F)(F)F)cc2)c(NC2CCCCCC2)n1`, for which the GI50 is 3.21 µM and the TGI amounted to 12.4 µM. In turn, `CC1=C(C(=O)Nc2cccc(C(F)(F)F)c2)C(c2ccc(O)cc2)C(C(=O)Nc2cccc(C(F)(F)F)c2)=C(C)N1` came in with a TGI of 88.8 µM. The same measure, in the same setting: the figure for `CCCCC1Cc2cc(O)ccc2-c2n1c1cc(O)ccc1[n+]2C` (stereo unspecified) (tested in a mixture with another compound) is > 100 µM.

On to `CCCCc1ccc(Nc2nc3c(ncn3C3OC(COC(C)=O)C(OC(C)=O)C3OC(C)=O)c(=O)[nH]2)cc1` (stereo unspecified), for which the TGI came out at 40 µM. On to `CCN(CC)CC(O)c1ccc2ccc3ccccc3c2c1` (stereo unspecified), for which the TGI was determined as 29.1 µM. As to `Clc1cc2nc(C3CCCO3)[nH]c2cc1Cl` (stereo unspecified), the TGI is > 100 µM.

`C=C1CC[C@@H]2C(C)(C)[C@@H](O)CC[C@@]2(C)[C@@H]1COc1ccc2ccc(=O)oc2c1` displayed a TGI of 38.9 µM.

On to `CCOc1ccc(Cc2nccc3cc(OCC)c(OCC)cc23)cc1OCC`, for which the GI50 is 8.36 µM and the TGI was 32.5 µM. `O=C1C=C2S[C@H]3C[C@]2(C=C1Br)c1c(c(O)c2c4c1=NCCC=4C=N2)N3`: the TGI was determined as 8.25 µM. Regarding `Cc1ccc(/C=C(\C#N)n2nnc3cc(Cl)c(Cl)cc32)cc1`, the GI50 was 2.86 µM and the TGI is > 100 µM. As to `COc1ccc2c(c1)C(=O)c1c-2n(CCCN=[N+]=[N-])c(=O)c2ccccc12`, the GI50 is > 100 µM and the TGI was > 100 µM. On to `CC(C)(C)OC(=O)N1C(C2=COc3ccccc3O2)=COc2ccccc21`, for which the TGI is > 100 µM. Consider `CN(C)CCNC(=O)c1cccc2nc3ccc4ccccc4c3nc12`, for which the TGI worked out at 0.68 µM. Take `CC1=C(N2CC2)C(=O)C(CO)=C(N2CC2)C1=O`: the GI50 is 0.159 µM; the TGI is 0.735 µM and 0.857 µM. For the molecule `COC(=O)C(C(=O)C(=O)Nc1cccc(O)c1)c1nc2ccc(Cl)cc2[nH]c1=O` (stereo unspecified), the TGI is > 100 µM. Turning to `CCOC(=O)/C(C(=S)NC)=C(/N)N1CCCC1`, the TGI was > 100 µM. Regarding `CC(/C=C/c1ncccc1OCCCCCC(=O)O)=N\NC1=NCCN1`, the TGI is > 100 µM. For the molecule `CCN1CCN(CCOc2ccc(CNc3ccc4nc(CCC5CCCCC5)[nH]c4c3)cc2)CC1`, the GI50 was 2.87 µM and the TGI turned out to be 10.2 µM.

In the case of `COC(=O)CCC(NC(=S)N/N=C(\C)c1ccccn1)C(=O)OC` (stereo unspecified), the TGI was > 100 µM.

In the case of `N#Cc1ccc(Oc2nccc(-c3c(-c4ccc(F)cc4)ncn3C3CCNCC3)n2)cc1`, the GI50 is > 25 µM and the TGI is > 25 µM. Consider `OC(c1ccccc1)(c1ccccc1)c1ccccn1`, for which the TGI was > 100 µM. With `Cc1ccnc(NS(=O)(=O)c2ccc(NC(=O)c3ccc4nc5ccccc5c(Nc5ccc(S(=O)(=O)Nc6nccc(C)n6)cc5)c4c3)cc2)n1`, the TGI was > 100 µM. Consider `CN1CCc2c(sc3nc(Nc4ccccc4)n(N)c(=O)c23)C1`, for which the TGI was > 100 µM. Turning to `Cc1nn2c(N)cc(=O)nc2nc1/C=C/c1ccc(N(C)C)cc1`, the TGI was > 100 µM.

Molecule `Cc1ccc2nc3c(C(=O)NCCN(C)C)cccc3cc2c1` registered a TGI of 6.65 µM. Consider `O=[N+]([O-])c1cccc(C2SCc3nc4ccccc4n32)c1` (stereo unspecified), for which the TGI was > 100 µM. Same read-out and setting: the figure for `O=C(Nc1ccc(Cl)cc1)c1cc(S(=O)(=O)Nc2n[nH]c(=O)[nH]2)c(SSc2cc(Cl)c(C(=O)Nc3ccc(Cl)cc3)cc2S(=O)(=O)Nc2n[nH]c(=O)[nH]2)cc1Cl` is > 100 µM; for `CN(C)C(=S)Nc1nnc(NC23CC4CC(CC(C4)C2)C3)s1` it is > 100 µM; for `NC(=O)c1ccccc1NC(=O)C(=O)C(C(=O)c1ccc2ccccc2c1)C1OC(=O)c2ccccc21` (stereo unspecified) it is 41.3 µM. As for `CN(CCCNC(=O)c1cn(C)c2c1ccc1cc(Cl)ccc12)CCCNC(=O)c1cn(C)c2c1ccc1cc(Cl)ccc12`, the TGI stood at 5.53 µM.

On to `O=c1[nH]c(=S)[nH]c2c1sc(=S)n2-c1ccccc1`, for which the TGI is > 100 µM. In the case of `CCOc1ccccc1NC(=O)C(=O)CC(=O)C1=C(C)Nc2ccccc2S1`, the TGI is > 100 µM. As to `COCCc1c(C)c(C#N)c2n(C)c3ccccc3n2c1=O`, the TGI is > 10 µM. For `Nc1ccc2c(c1)C(=O)c1ccc(F)cc1-2`, the TGI was > 100 µM. For `Nc1nc(-c2ccccc2)c(-c2ccccc2)c(-c2nc(N)nc(-c3ccccc3)c2-c2ccccc2)n1`, the TGI is > 100 µM.

As for `COc1cccc(Nc2nc(NNC(=O)Cc3ccccc3)nc(NNC(=O)c3ccncc3)n2)c1`, the GI50 was > 100 µM and the TGI is > 100 µM. As to `CSCCC(NC(=O)C(Cc1ccccc1)NC(=O)CNC(=O)CNC(=O)C(N)Cc1ccc(O)cc1)C(=O)O` (stereo unspecified), the TGI is > 100 µM. The same measure, in the same setting: the result for `C/C(=N/O)C1CC=C(S(=O)(=O)c2ccccc2)C1` (stereo unspecified) reads > 100 µM.
